# Laboratory results: PubChem BioAssay AID1963576 (National Center for Advancing Translational Sciences (NCATS), 2024)
# In all, about 46,000 compounds went through this assay and about 60 (0.1%) were called active. Roughly 3% stayed inconclusive and do not appear here. Calls follow the shape of the dose curve; as a rule, active = well fitted inhibition curve with a large enough effect; inconclusive = small, poorly fitted or top-dose-only effect; inactive = no such curve, though single readings can be large or run the other way. Some of the results follow. Residues, ends and D or L forms follow the SMILES beside them.
# Assay: Primary qHTS assay for Inhibitors of ovarian cancer metastasis using an organotypic tumor microenvironment (TME) model. Also: nearly all actives have a fitted effect of over 65% in size.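 As to activity change, negative = inhibition: plate controls were DMSO wells for no effect and tomatine positive control wells for full effect.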
# Conditions: SKOV3ip1-GFP adhesion/invasion on 3D omental model, fluorescence; series mostly up to 45.8 µM; activity change, negative = inhibition: at the top concentration
# Outline: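 Adhesion/invasion was scored as fixed GFP-labeled SKOV3ip1 cell counts (488/509 nm), normalized to DMSO and tomatine controls. Cancer cells in serum-free medium, with four compound doses (0.36-46 umol/L), sat 2 hr at RT then 16 hr at 37 C on a 48 hr fibroblast/mesothelial/ECM culture.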
SMILES,outcome,"activity change, negative = inhibition"
Cc1ccccc1NC(=O)CCNC(=O)Cn1ccc2ccccc2c1=O,inactive,
CC(Nc1ccc(-c2nc(-c3ccco3)no2)cc1[N+](=O)[O-])c1ccccc1 (configuration not stated),,inactive: 12.1%
Cc1ccc(NC(=O)N2CCN(Cc3nc4ccc(C)cc4o3)CC2)c(Cl)c1,,inactive: 4.1%
O=C1CN(C(=O)COc2ccc(Cl)cc2)C(c2ccc(F)cc2)c2cc(Br)ccc2N1 (configuration not stated),,inactive: -15.8%
CCS(=O)(=O)c1nc(S(=O)(=O)c2ccc(C)cc2)c(NCC(C)C)s1,,inactive: -3.38%
CCOC(=O)N1CCc2c(sc(NCc3sccc3C)c2C(=O)Nc2cc(Cl)ccc2OC)C1,,inactive: 4.14%
COC(=O)CN1C(=O)CSc2ccc(S(=O)(=O)Nc3c(C)cc(C)cc3C)cc21,,inactive: 10.3%
CCOC(=O)c1ccc(NC(=O)CSc2nc(-c3cccs3)cc(C(F)(F)F)c2C#N)cc1,,inactive: -0.519%
Cc1ccc(CNC(=O)c2ccc3c(c2)nc2n3CCCC2)cc1,inactive,
Cc1ccc(CNc2ncnc3c2cnn3-c2ccc(C)cc2C)cc1,,inactive: -14.4%
CC(=O)Nc1ccc(NC(=O)c2c(C)nn(-c3ccccc3)c2-n2cccc2)cc1,,inactive: 14.8%
Cc1cc(C)c(NC(=O)Cn2nnc(C(=O)Nc3ccc(F)cc3F)c2N)c(C)c1,,inactive: -8.25%
COc1ccc(-c2cc(OC(=O)c3cccc(C)c3)c3c(C)oc(C)c3c(=O)c2)cc1,,inactive: 3.57%
COc1ccc(-c2nnc(SCC(=O)Nc3cccc(Cl)c3C)nc2-c2ccc(OC)cc2)cc1,,inactive: 5.25%
COc1ccc(NC(=O)CCNS(=O)(=O)c2ccc3c(c2)CCN3C(=O)C2CC2)cc1Cl,,inactive: -25.4%
Cc1cc(C)n(-c2nc(C)c(C)c(=O)n2CC(=O)Nc2ccc(Cl)c(Cl)c2)n1,inactive,
CCn1cc(C(=O)NCc2ccccc2OC)c(=O)c2cc(S(=O)(=O)N3CCCCCC3)ccc21,,inactive: -2.5%
CCc1nn2c(=O)cc(COC(=O)C3CCCCC3)nc2s1,,inactive: 21.3%
COc1cccc(NC(=O)c2nnn(Cc3ccc(OC)c(Br)c3)c2N)c1,inactive,
COc1ccc(CNC(=O)C2CCN(S(=O)(=O)c3ccc4nc5c(c(C(=O)O)c4c3)CC(C)CC5)CC2)cc1 (configuration not stated),inactive,
CCc1ccc(NC(=O)C2CCCN(S(=O)(=O)c3cccc4nonc34)C2)cc1 (configuration not stated),,inactive: -7.08%
CCOc1ccc(NC(=O)Cn2cnc3c(oc4ccccc43)c2=O)cc1,,inactive: 6.84%
COc1cccc(-c2cc(C(=O)N3CCN(c4ccc(F)cc4)CC3)no2)c1,,inactive: 0.907%
COc1cccc(NS(=O)(=O)c2cc3c4c(c2)C(C)C(=O)N4CCC3)c1 (configuration not stated),,inactive: 18.8%

SMILES,outcome,"activity change, negative = inhibition"
Cc1ccsc1CCN1C(=O)N(c2ccc(F)cc2)C(=O)C1CC(=O)Nc1ccccc1 (configuration not stated),,inactive: -1.86%
COc1cc(-c2noc(C3CC(=O)N(c4cc(C)ccc4C)C3)n2)cc(OC)c1OC (configuration not stated),,inactive: -0.136%
CN1C(=O)Cc2cc(S(=O)(=O)CCC(=O)N3CCN(c4cccc(Cl)c4)CC3)ccc21,,inactive: 9.84%
CCc1ccc(NC(=O)c2c(C(=O)Nc3ccccc3)sc3nc(C)cc(=O)n23)cc1,,inactive: -29.2%
COC(=O)[C@H](Cc1ccccc1)NC(=O)[C@@H](N)CC(=O)O (HELM PEPTIDE1{D.F.[CO[*:1]]}$$$$V2.0),,inactive: -8.58%
Cc1ccc2c(=O)cc(C(=O)Nc3c(C(=O)c4ccccc4)oc4ccccc34)oc2c1C,,inactive: 6.79%
CCC(C)NC(=O)c1ccc2c(c1)N=C(C)c1cc(C)ccc1S2 (configuration not stated),,inactive: -1.32%
Cc1cc(C)c2c(=O)cc(C(=O)Nc3ccc(S(=O)(=O)Nc4onc(C)c4C)cc3)oc2c1,,inactive: -2.37%
COc1ccc2c(c1)c1c(c(=O)n(-c3cccc(C)c3)c(=O)n1CC(=O)N1CCCC1)n2C,,inactive: 9.04%
CC(C)(C)OC(=O)N1CCC(c2c(C(=O)NCc3ccccn3)cnn2-c2ccc(F)cc2)CC1,,inactive: 1.26%
COc1cccc(NC(=O)C(=O)NCCc2csc3nc(-c4ccccc4C)nn23)c1,,inactive: 0.329%
CCc1ccccc1N(c1nc(-c2ccc(OC)c(OC)c2)no1)c1nc(-c2ccc(OC)c(OC)c2)no1,,inactive: -8.17%
COc1ccc(-n2nnc(C(=O)Nc3ccccc3F)c2N)cc1,,inactive: -25%
CCOc1ccc(NCc2cccn2-c2nnc(N3CCC(C(=O)NCc4cccc(OC)c4)CC3)s2)cc1,,inactive: -38.4%
CC(C)CC(=O)Nc1nnc2n1CCS2,inactive,
COc1ccc(-c2cc(-c3ccccc3)nc3c2COc2ccccc2-3)cc1,inactive,
CCCn1cc(S(=O)(=O)c2cc(C)ccc2C)c(=O)c2cc(F)c(N3CCCCCC3)cc21,inactive,
CCN1C(=O)c2ccccc2Sc2ccc(NC(=O)Cc3ccc(OC)cc3)cc21,,inactive: -4.65%
Cc1oc(-c2cccc(Cl)c2)nc1CSc1nnc(C)n2c1cc1occc12,,inactive: 7.88%
CC(=O)[C@]1(O)Cc2c(O)c3c(c(O)c2[C@@H](O[C@H]2C[C@H](N)[C@@H](O)[C@H](C)O2)C1)C(=O)c1ccccc1C3=O,,inactive: 4.73%
Cc1nc2c(-c3ccc(F)cc3)c(C)nn2c(C)c1CCC(=O)N1CCN(c2ccc(F)cc2)CC1,,inactive: 6.77%
Cc1cccc(CCNC(=O)c2ccc3c(c2)nc2n3CCCCC2)c1,,inactive: 0.502%
Cc1ccc(Cc2nc3ccccc3nc2SCC(=O)NCCc2ccccc2)cc1,,inactive: -1.84%
